Assay results: the supplement of paper PMC10681739
Over roughly 2,700 sequences, “arbitrary fluorescence units” has its median near 4,100; the highest 2% begin near 54,000. The list shows a part of the results.

Molecular target: T1, ETS1 (UniProt P14921)
T1 sequence: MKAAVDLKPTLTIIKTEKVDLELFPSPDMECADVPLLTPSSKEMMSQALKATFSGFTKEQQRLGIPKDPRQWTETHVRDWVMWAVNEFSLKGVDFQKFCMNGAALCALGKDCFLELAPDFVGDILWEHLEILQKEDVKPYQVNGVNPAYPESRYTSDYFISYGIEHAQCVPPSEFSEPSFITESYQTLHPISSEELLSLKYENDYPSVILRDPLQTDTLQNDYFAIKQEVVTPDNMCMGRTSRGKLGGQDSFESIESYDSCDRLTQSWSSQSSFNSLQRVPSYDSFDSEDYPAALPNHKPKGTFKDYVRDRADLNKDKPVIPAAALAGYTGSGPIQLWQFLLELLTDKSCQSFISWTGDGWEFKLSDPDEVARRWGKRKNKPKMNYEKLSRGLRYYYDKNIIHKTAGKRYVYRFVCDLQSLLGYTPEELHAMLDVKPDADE
Assay: ETS1 binding intensity (PBM fluorescence) (arbitrary fluorescence units); higher = stronger binding
Details: ETS1 concentration 10 nM
Description: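 gcPBM on wild-type 36-bp genomic probes with two neighbouring ETS1 sites (4-24 bp apart). Recombinant human ETS1 (10 nM) was detected with anti-ETS1 antibody fluorescence. Values are medians over 3 replicate spots. The probes sit in constant array flanks that are not printed.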

Row | Sequence | ETS1 binding intensity
1 | AGTACACGGAAGCCGAGGACAAGAGCATCCGGCTCG | 1780
2 | GACAGGAAGTTTGTGAAGCTGGCAGGGCTTCCGTCC | 6920
3 | CAGCATATCCGCTACAACCCGCTGCAGGATGAGTGG | 18900
4 | TGACCTACTTCCTCTTTCTGGTGGCTTCCTGCTAAA | 20100
5 | ACACTGGGCGGAAAAGCCCCGGTTTCCTGTCCCCCG | 7870
6 | TACATTTCCCAGGAGCCTCGGCGCGCACTTCCGCTT | 2710
7 | GGCAGCAGTGGCATCCTGACCGGAAGTGCCTGCAGT | 14300
8 | AATACCGGAACATTTACACACACACATTTCCCAGCT | 309
9 | AGGTCGGAAGTCGCGGCTGTGGCGAAGCGGAATGCA | 1120
10 | CGCCCTCCTCTTCCGGGGTGGGGGAAGTGCGCCTCG | 7880
11 | GGACTTCCCAACTAGACAGACCAAATGAGGAAGTTG | 880
12 | AGTCAGGAAGTAGGCTTTGCAGTCCATTTCCTGGGG | 4550
13 | GCAGGAGGGAGGAAGAAAGGGAGGAAGACAGCGTGC | 233
14 | AGCCCAAGCGCGGAAGAGGGCGGAAGGAGAACCCCT | 240
15 | GCGCGAGCGACCAGGAAGCAGGAAACCCGGGCAAGC | 917
16 | GGACGGAGCTTCCGGCTCGAGGCGGAAGTGCTCGCG | 30800
17 | GCCACCAAGTGCCGGAAGCGGAAGCTGGAGCGCATC | 8050
18 | AATGAGAAAATCGGAAACCCAGGAAGCTGCCCCAAT | 228
19 | TCCTCCGCTGACGGGAAGCAGGAAGTGGCGGCGGGC | 4820
20 | TGTATTTTCAGGATGTGGCAAGCGGATGTGGCTCAA | 2810
21 | CGGCTTCCTGACTTGCCCCACTCCCTCCTTCCGCCG | 13100
22 | GTACAAGACATCCTGTTTTACCACATCCTTGCCAAC | 17600
23 | CAGCGCGGCTTCCGCCGGGAGCCCGGAACCGAGCCC | 7120
24 | GGAGAGAGGCAGGAAGTCGACAGGAAGATGTACCTA | 8700
25 | ACAGACGGAACTGGCGCTCCCAAGAACTTCCGCTCG | 2840

Row | Sequence | ETS1 binding intensity
26 | TTTGTCTAGTCATTTCCTCAGGAAACCCTTATGAGT | 990
27 | GTTAATTATTTCCTGCTCTCCAGGGAAGTGTTATTC | 19200
28 | TCGTCCGCGTATCGGAACAGGAAGGAAGTCTTGCCC | 574
29 | AAGGAAGAAGAGGAAGCAGAGCTTCCTTTACGGCGG | 795
30 | GGTTGGTGATTGGCAGGATCCTGGTATCCGCTAACA | 278
31 | TTGCTGATACTTCCTGTGGAGGGGATGTGGGAGTGG | 14700
32 | GGCAACCAGGAAGGGACAGCCGGGCATCCGCTGGGC | 867
33 | CATTCTTCCTGCAGACGCTTCTACACCAGGAAGGCA | 6440
34 | AGAGGTTCCGGACCGGCCTCAAGTCACTTCCGGGGC | 8380
35 | TTGCTATACGGAAGCACAGCTCACTTCCTGCTGGTT | 3560
36 | CTCCACCCCTGGAGGAAACAGGATGCCTTGGGACTT | 310
37 | CGCCTTCCGCAGGCTCGGCTGTCTCCACGGAAACCT | 3960
38 | AACAGGAAGTATTACATGAAGGAGAACAGGAAGTAA | 4850
39 | GCTGAACCCACATCCCTAGCACTTCCCTTTTGTGTC | 666
40 | CGGGCCCGGGGCGGAAAGCAGGAAGTCGATCCCGCG | 2040
41 | ACGTCACTTCCGGCGCCGGGGCTCACTTCCTGGTGC | 87500
42 | TCCCCGGGTTTTCCTGCTCTCCGGGAAGCCGCGAGG | 1420
43 | GCAAAGGCCTAGCAGGAAGGAAGCGAGCCTGGGGCC | 355
44 | GGTCGCATCCGGGGCGCCGCGGGACACTTCCGGTGA | 26100
45 | TACCTAAGTCTTCCGTGTGCACTTCCTCCTGCTTGA | 1210
46 | CCCAACTTCCTCCAGCCCAGCTGGGCTTCCTTTGTT | 8910
47 | GGGCAGGAAGTCTGCAGGGCAAGCTGCAGGATGTCA | 5270
48 | GGTAGAAGTCTCAGGATGCTTCCTGCAGAATGATGG | 785
49 | GGCACGTGGGCAGGAAGTTCTTCCTGGCGTCTGCCC | 7300
50 | GAATTTCCTGCTGTTCAAGGAACGAGACATCCTCCA | 40900

Row | Sequence | ETS1 binding intensity
51 | GTGAGAGGAAGTCGGGCCGCGAAAGCTTCCTGAGGA | 2620
52 | TGGTGCCCCACCGGAAGGCCGGATGTGTTCCTATCA | 7070
53 | ACAACTTCCTGTTACACAAGACAGGTATTTCCTCAT | 59800
54 | TGGCGGAGGCGCCGGAAGTTTTCCGGCTTTCTGCTG | 4500
55 | ACTAGCTGCTACCGGAACCGGAAGCGGCTGCTCCAG | 9620
56 | ATCCTCTGCACAGGAAGTATTTCCTCTTTACTGAGG | 8000
57 | CAGGCCGGCTTCCTGGGACGCCTCTTCCTGGCCACC | 4380
58 | GCGCGTTTCCCGCCTGAGGCGGTTACGGAAACGCGG | 5790
59 | TGTTGCGACTGGCATCCGCATCCGGCAGATGTAGAT | 5600
60 | CGGCTCGAGCCCCGGATGAGGAAGTGGTGCGGCCAC | 564
61 | AGACACTGAATCAGGATGTTTCCTGGAGTGCAGGGA | 556
62 | GAGCTGGCAGGAACCAGCCGAACAGGAAGCGGGCGC | 859
63 | AGGCAGGAAGTACCGCCTGATGCTCAGCTTCCGCTG | 9880
64 | CGCAGCCTCCTGACTTCCCTTCCTGTCCTCAGCGGC | 3470
65 | GCATACAAGCCACATCCTCCTTCCTGTGATAACAAG | 7100
66 | AAGTGACATCCGAGGGGAGCCCTCGGGGAAGTCAGA | 558
67 | TGCAATTTCCTGTCTTGTCCCAATATTTCCTGTTAA | 29000
68 | TGTGATTTTCCATCCTGCCATTTCCTGGCACCCAGA | 4620
69 | TGGAAATTACTTCCGTTAGTTGCTTCCTTATCTTTA | 19600
70 | GAGCGAACCGGGAAACGGCACCGGAAGCCCGGAGGT | 5900
71 | ATAGACAGGATGTGACTTCATCAAAGGAAATGCTTC | 9400
72 | CCCAGCTAAAGGAAGTCTGGCACTTCCTCTCCTCAA | 2990
73 | CAACGCGGGCTTCCTGACTCCACATCCTGCTCGTCC | 5700
74 | CGGCTTCTCCGGAAACGGCTTTTTCCGGTGACACCC | 11100
75 | TGGTTTCCTCTTTGGGACTACGTCTTCAGGATGGCA | 6600

Row | Sequence | ETS1 binding intensity
76 | GCCTTTGCAAACAGGAAACAGGAAACACACCTACAA | 6950
77 | AAGGCGGAAACACGCACCATGGTGACTTTCCGGCCT | 2440
78 | GCTGAAGGAAGGGGGCGGAGGCCCCCGGAAAAGGGC | 190
79 | TTGCTACACCGGAAAACCTCCGTTTCCTATTCCAGG | 4980
80 | ATGTTTCCTTGTTCAGAGTATTTATCACATCCTGTA | 3380
81 | TGCTGCTTCCTGGCTCCTGGGGCCCTCGGAAGTCTC | 10000
82 | ACAAGCGAGGAAGCCAGGGTTCAAATCCAGGAAGTC | 229
83 | TGGCCTAATACGGAACTCCATTTCCCGGCGTGCCTC | 320
84 | TGTGGTTATAACTTCCTGTGCTTCCTGTCACTGCAC | 25300
85 | CGTCACTTCCGGCGCCGCGTGAGGCCTTCCGGTGCC | 73900
86 | TTACGGAGTCGCCGGAAGCGGAAGTCGCTGAGGGGT | 8600
87 | GGCAAGGAGTCTTCCTGGAGCCGGAAACAGCAAAGA | 4080
88 | CTGTAGGAAATGATGCTCCCAGCCCAGCTTCCTCAC | 296
89 | AGTAATTTCCTGAAATAAAGCGTGGGAGGAAGTCAT | 8440
90 | CGGGGAGCCAGGAAATATCTCCGGAATCTCACAATG | 885
91 | GGACCTTCCTGTCCAGCTTCTCATACAGGAACTCCT | 14300
92 | TGGCAGGAAGCCTGAGGCATTATTCAGCTTCCTTAG | 388
93 | TCCAGCTCCATTTCCTCCTCCCTTCCTGCCTTTAGT | 4650
94 | GACTATTTACGGAAGTGCAGGCAGGATGAAAGGACT | 2050
95 | TCCAACAGGAAGTGAGAGCAGCTCCTTCCTGCTGCA | 16900
96 | GATGTACACATCCTCCAAATGGCATCCGGCCTAATG | 7710
97 | AGAAACCACATCCTCCTACAGGCATCCTGCTGACAT | 6590
98 | CGGGGCTCCCGGAAGCCGCCCCTTCCGCCAGCTTGC | 4520
99 | ACCCAGCTTCCTGTCCTCCTGGAGACTTCCTGCCTC | 31400
100 | GCATAAAGGAAATAGGAATGGTAACAGGAAATTGAA | 3580

Row | Sequence | ETS1 binding intensity
101 | CAAGGCAGGAAGTCCACAAGGCCAACGGAAGGTCCC | 8440
102 | CTGCCAATCACTTCCTGGCTACATCCGGAGTGACAC | 15900
103 | TCTCGCACCGGATTCGGCCCCCACTTCCGAGCCCTG | 492
104 | TGTGTGGCAGCGCTTCCGCAGGAAGTCAACAGAGCA | 5310
105 | GAACAGCCCAGGATGTTTCGGCTTCCGTGCTGCTGA | 928
106 | CGGCAGGCGGAAGCCAGACCCGGCGGAACTACCGTG | 2020
107 | CTGCAGGAAGAGCCGCCCTTGGACGGTTTCCTGGAG | 597
108 | GGCTTCAGGATGCATTGACAATTAAAGGAAGTCAGA | 275
109 | CGTGGCTTCCGAGGAGAGGGCAAGAACGGAAGCGAG | 827
110 | TGTGATACTTCCTGTCCTCGTCTGTTTCCTCTGACC | 44100
111 | CAGTGGTGACATCCGAGTGTGCTTCCTCAGTGCCAC | 1100
112 | ACCTAGCGGAAGACCCAGAGCCCCAGGAAGCCGCCT | 396
113 | AGACTTCCGTTCTGGCTCTCACTCTAGTTTCCTGGT | 67500
114 | AAGGAGACCGGAAGAAGGTCTGGGGAAGTTATTTGG | 14600
115 | AGGAGGAATGGCAGGAAGAGGAAGTGAAACCGACAA | 1690
116 | GCTCCCGGGCAGGAAGTAGTGTTCCGGGTGGGGTAG | 13200
117 | CGACACCGGAAATGTGGCGCCCGCGCTTCCGCCTGC | 31500
118 | GGCGATCCGGCAAGGGAGGCTGGCCGCCGGATGGGG | 177
119 | AGGAGGCATTTCCTGATGCCTCCTTCCGGCAACCTT | 11800
120 | GAAAGGAAGCAGCGCTCGGCCGCCTGTGGGATGTGG | 258
121 | TCAATTTCTCATTTCCCTGGAGGAAGCCCATAAAGT | 217
122 | AAGCAGGAAACCTCCCCTTTATGTGGCAGGAAGCTG | 512
123 | TGTGAGCAGGAAGCGTTTACATTTAGGAAATGCTTT | 1400
124 | TTGCCGGAAGTCGTGGCGCGCGCACAGGGGATGTGT | 17800
125 | CTTTAGTTTCATTTCCTCCCAGGATGTACTGCTCTT | 5310
